First the molecules themselves.
T1: recombinant human IL-12 (human, UniProt P29459 23-219; P29460 23-328)
T1 sequence (looked up) 1: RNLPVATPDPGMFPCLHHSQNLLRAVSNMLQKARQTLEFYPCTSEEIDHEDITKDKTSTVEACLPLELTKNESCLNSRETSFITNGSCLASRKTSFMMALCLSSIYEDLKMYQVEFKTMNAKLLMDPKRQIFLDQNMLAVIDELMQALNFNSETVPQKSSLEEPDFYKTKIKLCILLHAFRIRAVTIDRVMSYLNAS
T1 sequence (looked up) 2: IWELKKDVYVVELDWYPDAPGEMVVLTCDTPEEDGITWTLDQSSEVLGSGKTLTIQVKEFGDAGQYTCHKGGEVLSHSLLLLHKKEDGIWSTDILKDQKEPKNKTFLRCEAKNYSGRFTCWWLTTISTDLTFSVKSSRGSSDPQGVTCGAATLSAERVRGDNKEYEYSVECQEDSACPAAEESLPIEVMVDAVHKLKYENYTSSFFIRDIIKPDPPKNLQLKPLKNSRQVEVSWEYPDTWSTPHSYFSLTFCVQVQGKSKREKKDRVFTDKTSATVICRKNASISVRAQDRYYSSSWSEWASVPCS

T2: recombinant human IL-23 (human, UniProt Q9NPF7 20-189; P29460 23-328)
T2 construct: Recombinant protein coated on the ELISA plate
T2 sequence (looked up) 1: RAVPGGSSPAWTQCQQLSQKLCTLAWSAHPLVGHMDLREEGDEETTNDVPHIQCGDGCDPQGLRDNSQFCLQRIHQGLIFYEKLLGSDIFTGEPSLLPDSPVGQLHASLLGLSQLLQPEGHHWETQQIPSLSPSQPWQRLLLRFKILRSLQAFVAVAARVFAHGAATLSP
T2 sequence (looked up) 2: T1 sequence (looked up) 2

B1: ustekinumab antibody produced in CHO-K1 cells, parental clone cl485-11, subclone 8 (antibody, human IgG1, kappa)
heavy: EVQLVQSGAEVKKPGESLKISCKGSGYSFTTYWLGWVRQMPGKGLDWIGIMSPVDSDIRYSPSFQGQVTMSVDKSITTAYLQWNSLKASDTAMYYCARRRPGQGYFDFWGQGTLVTVSS[sequence of human IgG1 constant region not given]
light: [sequence of about 200 residues not given]
modifications: glycosylated on the asparagine residue 299 of the Fc region; 68.6% of molecules (CEX main peak K0) without C-terminal lysine
notes: Fully human IgG1 kappa; differs in glycosylation (low sialic acid, more G0F) and C-terminal lysine content; Purified by protein A from the supernatant of the clone; also called 485-11#8; clone 485-11 #8
B2: ustekinumab antibody produced in CHO-K1 cells, parental clone cl563-24, subclone 103 (antibody, human IgG1, kappa)
heavy: B1 heavy
light: [sequence of about 200 residues not given]
modifications: glycosylated on the asparagine residue 299 of the Fc region; 63.0% of molecules (CEX main peak K0) without C-terminal lysine
notes: Fully human IgG1 kappa; differs in glycosylation and C-terminal lysine content; also called 563-24#103; Clone number c1563-24, subclone 103
B3: ustekinumab reference product (Stelara), produced in Sp2/0 murine myeloma cells (antibody, human IgG1, kappa)
heavy: B1 heavy
light: [sequence of about 200 residues not given]
modifications: glycosylated on the asparagine residue 299 of the Fc region; 36.0% of molecules (CEX main peak K0, mean of 12 samples) without C-terminal lysine
notes: Fully human IgG1 kappa, marketed product; highly sialylated (mostly NGNA)
B4: ustekinumab antibody produced in CHO-K1 cells, parental clone cl563-7, subclone 54 (antibody, human IgG1, kappa)
heavy: B1 heavy
light: [sequence of about 200 residues not given]
modifications: glycosylated on the asparagine residue 299 of the Fc region; 69.6% of molecules (CEX main peak K0) without C-terminal lysine
notes: Fully human IgG1 kappa; differs in glycosylation and C-terminal lysine content; also called CHO-produced ustekinumab

One assay concerns the target T1, recombinant human IL-12. The assay can be described thus: cell-based or functional assay.
Turning to B1, the “NK-Assay RP [U/mg] (inhibition of IL-12 induced IFN-gamma production in NK-92 cells, relative potency)” value stood at 1.1 U/mg.
On to B2, for which the “NK-Assay RP [U/mg] (inhibition of IL-12 induced IFN-gamma production in NK-92 cells, relative potency)” value was 0.98 U/mg.
B3: the “NK-Assay RP [U/mg] (inhibition of IL-12 induced IFN-gamma production in NK-92 cells, relative potency)” value worked out at 1 U/mg.
Regarding B4, the “NK-Assay RP [U/mg] (inhibition of IL-12 induced IFN-gamma production in NK-92 cells, relative potency)” value was 1.09 U/mg.

Another assay has as its target T1, recombinant human IL-12. The assay can be described thus: BLI (Octet RED96), antibody captured on AHC biosensor, IL-12 in solution, 1:1 model. For orientation: In BLI a coated tip is dipped into the sample, and binding shifts an interference pattern.
The term Kd denotes the constant that tells how readily two partners part at equilibrium. For B2, the Kd was 0.19 nM.
B3: the Kd is 0.206 nM.
Same read-out and setting: the value for B4 was 0.208 nM.

The next assay addresses T2, recombinant human IL-23. The assay can be described thus: ELISA, IL-23 coated, serially diluted antibody, relative to reference (PLA2.1). A general note: ELISA stands for enzyme-linked immunosorbent assay.
As to B1, the relative potency was determined as 1.02 U/mg.
Regarding B2, the relative potency was found to be 0.95 U/mg.
Take B4: the relative potency was found to be 1.02 U/mg.
